Source: the supplement of paper PMC12632987
In all, about 4,500 sequences were measured (“median log2 fold change of GCK-ALFA target abundance (FLAG IP / Myc IP barcode read proportion)”: median about 0.078, lowest 2% from about -0.6 on). Some of the results follow.

B1: GBRAP_11_2672 (protein)
chain: MKEILEKAAELAEEAAELVEKLIKEGTDNEELLKELEEKIKELEELAKKHLSKALQSDVEVAKELFEELKADKENAEQYAKELLAALRVLAGNLLLEADE
B2: GBRAP_11_2899 (protein)
chain: EKEKLEKLAKLLKEAIKLLKKILKEGTDDKELLEKALKVAEEALKLAKEVMDESTVELAEEAVKLLKEAKKDPKNAEKYIQQALATAQVLLGQVLLKIEE
B3: GBRAP_35_5598 (protein)
chain: DIDELAVESTIDMIEATIEGIPELPVEELARISRLLIRDVRELIKREKNNLEALKRLAEALKKLLEAIKKHHGDNPEMQKVAEEIEKAIKEAEKVAKEIE
B4: GBRAP_35_5587 (protein)
chain: EDEELILEELEDQAEATLWALKEEDDETALAMLKAFIDFARRAIEDLKDNKEALEKILELIKKVIEAVKKYRSDNPEFQELLKELEELAKEAEELIKKNK
B5: GBRAP_11_2638 (protein)
chain: KKEKYEEAAKLAKEAIKLLEKLLKEGVDNEELLKEIKKLLEELKKLIESIDDEALKKEVEIAEELLKEAEEDKENREEYIKNLKAALEVLKAELEEKIEE
B6: GBRAP_166_4892 (protein)
chain: ATEEAIKQIKAIADDTIKNIANLTEEQILESFVDIAEIVDEAGATPELIETAAKQTAEIVEEGVKAGFDRDTLESLALAAFGDNEELLDTLEKELEALKK
B7: GBRAP_137_3663 (protein)
chain: KKINVNVELDGDFAEITIKAEDKELAEEAEDIAIEVAKETGVAYAISLDLENKEVYVDLLGPREKLEEFIKKFLEKLSEKADVNFTLKENGKETKEYLKK
B8: GBRAP_11_2803 (protein)
chain: KKEELKKIAELAKKLAEAVKKLIKEGVDNEELLKKIEELLKKLEELVKKYGDEGLKKLAEIAKELLKEAKEDPENKEEYLKQLLATARVLEGNVLLEIEE
B9: GBRAP_78_6729 (protein)
chain: ELKELLEKAIEVTSEAAKLAVKEASNEVIAEIVDALSYLEEALELVEEGGEKEEILKKLEEAEKHIKEAIKLLPENLKEIRKKLEKALELVKKAIKKVKE
B10: GBRAP_42_5722 (protein)
chain: MYLVHLEVVVNTKEELEEAIKIWEKKNKKYEEEKNIIIHLEIAAPEEAEELAKEAEKKSEELAKKATKELDWVVVAASADEVEEAIEIAVDLALEEIKEE
B11: GBRAP_128_3420 (protein)
chain: SMEEKVEEVRRLLEEMLTADEETQKELADRIFELMLESDLETAEAMAEVILEMLPEFTAEQLDILADAGRKRLSEFSPEKQELVADVIVEALNLAEELEE
B12: GBRAP_11_2619 (protein)
chain: KKETLEKLRDLAEEAAAAVAELLARGVDDAELRARIRELLKELRELTEKHSSEADKKDVEIAEELFEEALADAENAEAYFQQLLAALRVLAGNYLLDIEE
B13: GBRAP_184_5269 (protein)
chain: TVRHVELEADTAAAAIAEVRAAAAAARAAGARLRLTLLLRGASVDGVLALLALLGELRAEGVVESATVGVELDATEEEIDTLVAAADAAGVRLVIAIPEE
B14: GBRAP_117_2586 (protein)
chain: SALREEALKEVTALAERIRKALEEKKTLSEEERKELDEKLLEETKELLKKLLSKLSEEEVDEIIEEVLAELDPETYVEFESLLIEAEDKIKEEEEKEKLA
B15: GBRAP_160_4676 (protein)
chain: SEELEELLEEIREILEEAVEMMKGESLEERVAIARVAGGDVILLLEESPIVTDEVVDYADELMDEFVAWIEANPDATEEEIRALAEETLAKIEEEIEKHS
B16: GBRAP_160_4267 (protein)
chain: SPEREKLIKEVEKSRDEILKLADEITPEELKTFAVVELGSHLMEAIDLGLVSDEEEDELAKIIDDLEKELTANKNAPVEVHKEIITEHYDKFIELLKKAK
B17: GBRAP_52_5978 (protein)
chain: MEEEARKIAEELLALMLAGDKEGAKKLIKEIVETKSEEFIELIFEELARLAKTASPEERDAIVELAIMLGDIALEAGFDEAKVDAGEARVAAAAVAALEA
B18: GBRAP_26_5468 (protein)
chain: VDETVRKAIEEIDKVLKELLDPETAAAARTEANTLILEYAEEAKKNANDEEKMEEAKKKAVKEFKEFLDELGVPEDKKEKLVKKFKEELEKIAEAVKKEA
B19: GBRAP_78_6582 (protein)
chain: KVEEELDKAIDALGKAEKLARQLPPEAQEEVLDLLVEASSYLLEAEENGYDLKELEEALKEVEKARELVAKLDHPVAPALLAELDKAEEYLKKAIKLVKE

Target: GABARAP, O95166
Assay: median log2 fold change of GCK-ALFA target abundance (FLAG IP / Myc IP barcode read proportion) (log2 ratio); each designed protein is fused to an ALFA-tag nanobody in HEK293 cells to bring the named protein to FLAG-tagged glucokinase (GCK); Myc marks an untargeted standard; higher = target protein stabilised (more abundant)
Conditions: target protein: 3xFLAG-MCP-GCK-ALFA reporter; HEK293 landing pad (RPLP)
Method in brief: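 Binders fused to an ALFA nanobody were recombined as a library into HEK293 landing-pad cells, which were induced with 2 μg mL^−1 doxycycline and then transfected to express a FLAG-tagged target and a Myc-tagged standard. After 48 h, circular RNA barcodes recovered by anti-FLAG and anti-Myc immunoprecipitation of lysates were reverse transcribed, amplified and sequenced. Each binder's target abundance is the median log2 ratio of FLAG to Myc barcode read proportions, from barcodes present at ≥10^−7 in both replicates, binders carrying ≥3 barcodes per replicate, a 10^−6 pseudocount and pooled replicates.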

GABARAP, O95166, sequence (O95166 whole entry, the tested form may be a part): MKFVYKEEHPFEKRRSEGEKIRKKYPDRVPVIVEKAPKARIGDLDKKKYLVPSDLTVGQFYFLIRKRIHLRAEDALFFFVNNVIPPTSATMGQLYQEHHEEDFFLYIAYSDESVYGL

| Binder | median log2 fold change |
| --- | --- |
| B1 | 0.186 |
| B2 | -0.152 |
| B3 | 0.0148 |
| B4 | 0.0805 |
| B5 | 0.156 |
| B6 | 0.114 |
| B7 | 0.0963 |
| B8 | -0.0158 |
| B9 | -0.277 |
| B10 | -0.0173 |
| B11 | -0.2 |
| B12 | 0.0253 |
| B13 | -0.0951 |
| B14 | 0.281 |
| B15 | -0.366 |
| B16 | -0.0246 |
| B17 | 0.0797 |
| B18 | 0.286 |
| B19 | 0.165 |
